From the supplement of paper PMC7826260
This is one part of the list. Each Rep nickase domain was tested in vitro on the same pool of single strands at 3 µM enzyme and 37 °C for 1 h; the strands have 90 letters, of which the middle is given. Uncut reads are compared with the no-enzyme pool on a log2 scale; more negative means more cut, near 0 not cut, and no call is made. The scaling is to total reads; values above 0 arise when much of the pool is cut.

What was measured:
Assay in all cases: uncleaved DNA left, log2 of reads against the no-enzyme library (log2 ratio); higher = less cleavage (more negative = more Rep cleavage of the k-mer); sequences stand for … in CTCGTCCG…ACCGGAGA
[1] = test system: T1, Rep nickase domain of Muscovy duck circovirus
T1 sequence (Rep 1-111, printed without the tag): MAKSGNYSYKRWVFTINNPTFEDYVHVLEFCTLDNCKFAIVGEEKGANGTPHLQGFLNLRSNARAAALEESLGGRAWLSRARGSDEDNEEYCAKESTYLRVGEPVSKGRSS
Description: (§1)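 A pool of 90-nt single-stranded DNAs with seven random bases just before the constant AC of the nick site (name = the seven bases) was cut by 3 µM recombinant His6-SUMO-tagged Rep nickase domain (300 nM DNA, 50 mM HEPES pH 8.0, 50 mM NaCl, 1 mM MnCl2, 1 h, 37 °C, three replicates). Uncut DNA was amplified and sequenced.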

[2] = test system: T2, Rep nickase domain of banana bunchy top virus
T2 sequence (Rep 1-94, printed without the tag): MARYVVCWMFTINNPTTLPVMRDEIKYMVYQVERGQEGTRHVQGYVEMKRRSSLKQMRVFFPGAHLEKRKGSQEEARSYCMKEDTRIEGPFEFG
Description: as §1

[3] = test system: T3, Rep nickase domain of cabbage leaf curl virus
T3 sequence (Rep 1-116, printed without the tag): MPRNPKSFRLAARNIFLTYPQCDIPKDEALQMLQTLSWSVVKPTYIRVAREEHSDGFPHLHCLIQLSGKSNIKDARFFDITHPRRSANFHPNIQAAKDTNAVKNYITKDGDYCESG
Description: as §1

[4] = test system: T4, Rep nickase domain of chickpea chlorotic dwarf virus
T4 sequence (Rep 1-124, printed without the tag): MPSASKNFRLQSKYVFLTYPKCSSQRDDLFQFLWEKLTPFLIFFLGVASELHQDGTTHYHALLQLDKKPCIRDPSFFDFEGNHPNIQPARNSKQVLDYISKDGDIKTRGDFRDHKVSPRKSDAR
Description: as §1

[5] = test system: T5, Rep nickase domain of faba bean necrotic yellows virus
T5 sequence (Rep 1-98, printed without the tag): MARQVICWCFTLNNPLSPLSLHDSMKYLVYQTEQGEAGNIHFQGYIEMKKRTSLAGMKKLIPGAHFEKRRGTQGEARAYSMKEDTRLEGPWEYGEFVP
Description: as §1

[6] = test system: T6, Rep nickase domain of maize striate mosaic virus
T6 sequence (Rep 1-117, printed without the tag): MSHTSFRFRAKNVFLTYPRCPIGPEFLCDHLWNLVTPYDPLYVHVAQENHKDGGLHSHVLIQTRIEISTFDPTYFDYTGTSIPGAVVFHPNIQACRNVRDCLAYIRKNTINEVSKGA
Description: as §1

[7] = test system: T7, Rep nickase domain of porcine circovirus 2
T7 sequence (Rep 2-116, printed without the tag): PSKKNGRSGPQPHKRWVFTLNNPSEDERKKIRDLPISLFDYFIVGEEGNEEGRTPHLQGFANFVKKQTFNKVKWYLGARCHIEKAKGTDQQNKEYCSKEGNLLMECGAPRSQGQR
Description: as §1

[8] = test system: T8, Rep nickase domain of tomato golden mosaic virus
T8 sequence (Rep 1-124, printed without the tag): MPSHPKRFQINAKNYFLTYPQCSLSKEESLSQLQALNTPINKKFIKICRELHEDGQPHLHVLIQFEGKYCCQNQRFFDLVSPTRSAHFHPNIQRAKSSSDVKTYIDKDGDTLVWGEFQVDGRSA
Description: as §1

[9] = test system: T9, Rep nickase domain of tomato yellow leaf curl virus
T9 sequence (Rep 1-136, printed without the tag): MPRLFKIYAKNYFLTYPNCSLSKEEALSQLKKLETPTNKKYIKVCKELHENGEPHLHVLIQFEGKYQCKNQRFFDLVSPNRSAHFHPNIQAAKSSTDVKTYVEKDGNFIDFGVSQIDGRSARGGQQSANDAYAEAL
Description: as §1

[10] = test system: T10, Rep nickase domain of wheat dwarf virus
T10 sequence (Rep 1-137, printed without the tag): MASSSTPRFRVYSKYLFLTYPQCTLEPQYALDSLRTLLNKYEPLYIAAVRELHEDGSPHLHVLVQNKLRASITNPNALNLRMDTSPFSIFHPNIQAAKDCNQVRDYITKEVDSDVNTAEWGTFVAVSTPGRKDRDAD
Description: as §1

Sequence | uncleaved DNA left (log2) [1] | uncleaved DNA left (log2) [2] | uncleaved DNA left (log2) [3] | uncleaved DNA left (log2) [4] | uncleaved DNA left (log2) [5] | uncleaved DNA left (log2) [6] | uncleaved DNA left (log2) [7] | uncleaved DNA left (log2) [8] | uncleaved DNA left (log2) [9] | uncleaved DNA left (log2) [10]
GTTCCGG | 0.00986 | 0.0998 | 0.561 | 1.53 | -0.0477 | 2.12 | 0.16 | 0.0927 | -0.0452 | 0.0645
ATCGCGA | 0.0434 | -0.0486 | -0.769 | 0.343 | 0.0896 | -0.57 | 0.116 | -0.00115 | 0.00841 | 0.00335
ACCCTCA | 0.0529 | 0.0924 | 0.0325 | -0.774 | 0.117 | -0.192 | 0.0694 | 0.171 | 0.086 | 0.126
GTTTTGC | 0.0758 | -0.00428 | -0.226 | 0.032 | 0.0932 | -0.491 | 0.047 | -0.0306 | 0.0233 | 0.033
GTTGCGT | -0.0394 | -0.0685 | -0.836 | 0.0468 | -0.0799 | -0.584 | -0.00952 | -0.107 | 0.00312 | -0.181
TAATCAA | 0.0946 | 0.199 | -2.2 | -1.91 | 0.0281 | -0.0567 | -0.0232 | -0.447 | 0.232 | -0.935
GCTTCCA | -0.095 | 0.0711 | 0.185 | 0.0858 | -0.153 | 0.49 | -0.017 | 0.000458 | 0.0625 | 0.0143
CATGTGT | 0.0565 | -0.109 | -0.687 | -0.901 | 0.133 | -1.03 | -0.0282 | -0.0399 | 0.0825 | -0.061
TAGAAGG | 0.0379 | 0.0511 | 0.383 | 0.919 | 0.0455 | 0.822 | 0.0559 | 0.0945 | -0.0791 | -0.027
TGGATCC | -0.0104 | 0.139 | 0.337 | 0.954 | 0.0922 | 0.943 | 0.185 | 0.0362 | 0.22 | 0.182
CTCTGAT | -0.13 | 0.0717 | 0.118 | 0.101 | 0.0822 | 0.556 | -1.52 | -0.0524 | -0.131 | -0.149
CCTCTCC | -0.078 | -0.0499 | -0.00117 | 0.00835 | -0.00956 | 0.845 | 0.0341 | -0.136 | -0.111 | -0.129
CTTCAGG | 0.0649 | 0.0419 | 0.301 | 1.06 | -0.0764 | 0.801 | 0.135 | 0.142 | -0.0177 | -0.0269
CGTCTGT | -0.045 | 0.0345 | -0.00851 | 0.469 | -0.0626 | 1.3 | 0.0368 | -0.0862 | -0.128 | 0.0343
CCGTCAA | 0.0891 | 0.0205 | 0.267 | 0.0821 | 0.0199 | -0.286 | -0.0154 | 0.0779 | 0.0835 | 0.0521
